Test results taken from PMC12407064.
Residue numbers refer to the chain shown, from its start. These are yes or no findings as the source states them, for the method shown. Binding seen in cells or lysates may run through a third protein. Some results given as binding are weak or reduced against the parent protein; the word gives no strength. For some of these results: Sequences can lack the tags named with a protein.

By UniProt entry, the sequences of proteins in these tests, tags left out.
UniProt Q9Y508: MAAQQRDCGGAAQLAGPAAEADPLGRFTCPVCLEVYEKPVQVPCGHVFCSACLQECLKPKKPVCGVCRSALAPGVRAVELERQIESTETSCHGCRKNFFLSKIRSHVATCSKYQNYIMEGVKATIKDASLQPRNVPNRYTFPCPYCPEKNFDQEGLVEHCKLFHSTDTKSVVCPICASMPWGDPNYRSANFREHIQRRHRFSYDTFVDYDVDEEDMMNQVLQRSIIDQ
UniProt Q96A37: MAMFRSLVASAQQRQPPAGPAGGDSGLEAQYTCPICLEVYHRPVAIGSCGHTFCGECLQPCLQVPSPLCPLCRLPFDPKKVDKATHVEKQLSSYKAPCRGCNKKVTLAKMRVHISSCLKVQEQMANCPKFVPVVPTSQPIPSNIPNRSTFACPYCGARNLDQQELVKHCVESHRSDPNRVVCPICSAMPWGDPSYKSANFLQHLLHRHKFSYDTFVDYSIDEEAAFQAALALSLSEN
UniProt O95271: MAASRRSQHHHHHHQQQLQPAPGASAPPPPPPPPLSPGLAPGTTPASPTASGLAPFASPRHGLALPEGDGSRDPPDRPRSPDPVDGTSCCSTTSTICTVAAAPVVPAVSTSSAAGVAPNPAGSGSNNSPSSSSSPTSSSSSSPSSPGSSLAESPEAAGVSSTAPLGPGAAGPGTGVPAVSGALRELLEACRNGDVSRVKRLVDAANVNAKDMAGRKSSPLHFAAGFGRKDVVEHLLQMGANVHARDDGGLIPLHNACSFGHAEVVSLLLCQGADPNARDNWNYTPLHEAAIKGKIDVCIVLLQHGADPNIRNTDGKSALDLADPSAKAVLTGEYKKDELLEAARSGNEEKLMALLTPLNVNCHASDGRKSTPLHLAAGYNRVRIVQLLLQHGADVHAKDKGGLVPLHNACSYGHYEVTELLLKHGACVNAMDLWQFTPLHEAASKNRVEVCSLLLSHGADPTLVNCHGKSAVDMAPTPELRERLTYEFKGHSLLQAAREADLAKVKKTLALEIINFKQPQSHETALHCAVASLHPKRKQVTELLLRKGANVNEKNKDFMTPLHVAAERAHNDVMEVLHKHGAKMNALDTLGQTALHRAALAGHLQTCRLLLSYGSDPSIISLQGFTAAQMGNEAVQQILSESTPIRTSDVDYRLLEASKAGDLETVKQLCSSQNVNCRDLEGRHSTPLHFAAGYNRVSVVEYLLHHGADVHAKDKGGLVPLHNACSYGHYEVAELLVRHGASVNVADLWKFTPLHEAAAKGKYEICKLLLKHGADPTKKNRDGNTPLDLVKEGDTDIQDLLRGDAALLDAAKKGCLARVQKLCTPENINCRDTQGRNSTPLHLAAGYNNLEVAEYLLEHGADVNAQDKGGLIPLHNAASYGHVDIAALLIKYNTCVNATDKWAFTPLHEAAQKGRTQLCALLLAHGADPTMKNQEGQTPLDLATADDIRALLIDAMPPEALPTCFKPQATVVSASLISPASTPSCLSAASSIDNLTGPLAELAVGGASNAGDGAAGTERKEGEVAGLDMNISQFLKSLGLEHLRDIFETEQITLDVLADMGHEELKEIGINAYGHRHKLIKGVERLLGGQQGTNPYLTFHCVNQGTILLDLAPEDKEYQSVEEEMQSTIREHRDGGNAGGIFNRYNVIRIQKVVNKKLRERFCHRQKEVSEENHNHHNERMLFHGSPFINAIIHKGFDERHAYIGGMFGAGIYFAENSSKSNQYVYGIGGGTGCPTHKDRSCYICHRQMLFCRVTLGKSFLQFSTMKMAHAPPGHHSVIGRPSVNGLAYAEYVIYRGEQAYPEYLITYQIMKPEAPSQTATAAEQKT

Experiments:
[1] = molecular target: T1, MycDTX3 (pRK5-3MycDTX3.WT, 1 to 347) (UniProt Q8N9I9); assay: co-IP; anti-Myc beads, 2 hours at 4°C, lysates of transfected TNKS1/2 DKO HEK293T cells in TNE buffer; immunoblot
T1 sequence: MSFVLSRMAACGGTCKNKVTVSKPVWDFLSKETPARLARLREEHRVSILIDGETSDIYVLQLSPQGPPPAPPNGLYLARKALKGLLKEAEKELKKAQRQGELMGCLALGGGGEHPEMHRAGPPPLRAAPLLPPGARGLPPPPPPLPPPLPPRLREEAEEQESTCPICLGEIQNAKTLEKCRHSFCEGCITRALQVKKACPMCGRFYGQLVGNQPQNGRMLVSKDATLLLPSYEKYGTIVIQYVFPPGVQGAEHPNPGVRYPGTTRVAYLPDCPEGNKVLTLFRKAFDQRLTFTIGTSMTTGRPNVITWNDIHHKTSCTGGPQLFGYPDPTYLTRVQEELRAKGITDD

[2] = molecular target: T2, FlagDTX2.WWE** (W24A/W114A) (UniProt Q86UW9); assay: co-IP; anti-Flag beads, 2 hours at 4°C, lysates of transfected TNKS1/2 DKO HEK293T cells in TNE buffer (10 mM tris pH 7.8, 1% Nonidet P-40, 0.15 M NaCl, 1 mM EDTA, PARGi, NEM); immunoblot; in Fig. 6F without or with co-transfected MycDTX3
T2 sequence: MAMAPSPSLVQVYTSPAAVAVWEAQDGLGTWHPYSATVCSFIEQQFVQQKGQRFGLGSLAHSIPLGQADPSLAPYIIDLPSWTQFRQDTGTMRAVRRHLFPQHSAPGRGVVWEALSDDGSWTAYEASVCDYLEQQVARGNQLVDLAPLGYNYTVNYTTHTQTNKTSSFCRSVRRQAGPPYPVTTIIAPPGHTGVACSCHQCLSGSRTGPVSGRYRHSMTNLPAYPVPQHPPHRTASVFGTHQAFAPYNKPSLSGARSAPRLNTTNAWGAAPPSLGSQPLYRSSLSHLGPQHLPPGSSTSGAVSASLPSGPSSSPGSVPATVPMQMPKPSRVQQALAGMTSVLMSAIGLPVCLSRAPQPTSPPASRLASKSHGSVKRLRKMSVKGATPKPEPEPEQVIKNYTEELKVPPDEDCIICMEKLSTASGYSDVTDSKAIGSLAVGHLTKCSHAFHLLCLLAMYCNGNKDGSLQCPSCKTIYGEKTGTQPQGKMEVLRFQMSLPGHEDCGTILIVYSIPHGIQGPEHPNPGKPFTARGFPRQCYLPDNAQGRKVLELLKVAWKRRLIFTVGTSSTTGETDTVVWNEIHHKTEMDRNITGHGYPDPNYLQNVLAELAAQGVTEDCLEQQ

[3] = molecular target: T3, FlagDTX3.WT (1 to 347) (UniProt Q8N9I9); assay: as above
T3 sequence: T1 sequence

[4] = molecular target: T4, FlagDTX2.CD (C412A/C415A) (UniProt Q86UW9); assay: as above
T4 sequence: T2 sequence with A24W, A114W, C412A, C415A

[5] = molecular target: T5, FlagDTX2.WT (1 to 622) (UniProt Q86UW9); assay: as above
T5 sequence: T2 sequence with A24W, A114W

[6] = molecular target: T6, FlagDTX2.RD (384 to 622) (UniProt Q86UW9); assay: as above
T6 sequence: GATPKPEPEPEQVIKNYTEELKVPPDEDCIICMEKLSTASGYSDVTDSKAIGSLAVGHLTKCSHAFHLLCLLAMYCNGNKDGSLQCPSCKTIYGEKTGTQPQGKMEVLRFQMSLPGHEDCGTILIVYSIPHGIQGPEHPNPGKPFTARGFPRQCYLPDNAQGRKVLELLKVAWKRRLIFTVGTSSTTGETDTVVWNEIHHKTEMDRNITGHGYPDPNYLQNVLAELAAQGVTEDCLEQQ

[7] = molecular target: T7, FlagDTX2.WWE (1 to 187) (UniProt Q86UW9); assay: as above
T7 sequence: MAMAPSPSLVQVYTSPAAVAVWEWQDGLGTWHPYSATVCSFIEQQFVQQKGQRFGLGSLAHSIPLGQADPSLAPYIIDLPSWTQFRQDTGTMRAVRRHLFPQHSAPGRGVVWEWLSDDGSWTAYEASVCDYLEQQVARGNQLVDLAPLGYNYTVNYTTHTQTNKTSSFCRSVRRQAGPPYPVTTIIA

[8] = molecular target: T8, FlagDTX3.RD (152 to 347) (UniProt Q8N9I9); assay: as above
T8 sequence: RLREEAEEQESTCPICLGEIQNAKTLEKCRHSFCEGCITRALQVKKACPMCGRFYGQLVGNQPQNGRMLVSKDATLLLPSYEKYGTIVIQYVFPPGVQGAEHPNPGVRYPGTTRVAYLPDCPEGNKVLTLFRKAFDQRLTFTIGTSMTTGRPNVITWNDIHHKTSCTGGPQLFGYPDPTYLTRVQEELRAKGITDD

[9] = molecular target: T9, FlagDTX3.CD (C164S/C167S) (UniProt Q8N9I9); assay: as above
T9 sequence: T1 sequence with C164S, C167S

[10] = molecular target: FlagRNF114 (pCMV3FlagRNF114) (UniProt Q9Y508); assay: as above
[11] = molecular target: T10, FlagDTX2.PRD (176 to 622) (UniProt Q86UW9); assay: as above
T10 sequence: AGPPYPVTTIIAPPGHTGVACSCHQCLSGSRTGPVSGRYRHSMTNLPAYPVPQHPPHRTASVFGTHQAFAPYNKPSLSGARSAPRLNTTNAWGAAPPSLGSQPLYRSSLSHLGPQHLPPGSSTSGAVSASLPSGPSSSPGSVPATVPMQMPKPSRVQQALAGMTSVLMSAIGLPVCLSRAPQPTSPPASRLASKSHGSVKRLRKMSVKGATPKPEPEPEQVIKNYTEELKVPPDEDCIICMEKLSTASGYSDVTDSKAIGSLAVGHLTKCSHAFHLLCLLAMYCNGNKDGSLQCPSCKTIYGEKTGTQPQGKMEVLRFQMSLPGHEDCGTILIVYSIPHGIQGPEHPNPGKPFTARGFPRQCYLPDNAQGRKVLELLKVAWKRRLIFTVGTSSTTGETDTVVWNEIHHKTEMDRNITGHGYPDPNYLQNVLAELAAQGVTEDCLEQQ

[12] = molecular target: FlagRNF166 (pCMV-3XF-RNF166) (UniProt Q96A37); assay: as above

Row | binding [1] | binding [2] | binding [3] | binding [4] | binding [5] | binding [6] | binding [7] | binding [8] | binding [9] | binding [10] | binding [11] | binding [12] | Substance
1 | binds | – | – | – | – | – | – | – | – | – | – | – | FlagRNF114 (pCMV3FlagRNF114) (from UniProt Q9Y508 1-228)
2 | binds | – | – | – | – | – | – | – | – | – | – | – | FlagRNF166 (pCMV-3XF-RNF166) (from UniProt Q96A37 1-237)
3 | – | binds | binds | binds | binds | no binding | binds | binds | binds | binds | binds | binds | TNKS (tankyrase 1; plasmid TNKS.WT (TT20.WT)) (from UniProt O95271 1-1327)
